# Data from the supplement of paper PMC3334620.
# Over roughly 33,000 sequences, “E-score (-0.5 to 0.5)” has its median near -0.017; the highest 2% begin near 0.3. The list shows a part of the results.
# Target: T1, Sut1 (UniProt P53032)
# T1 sequence: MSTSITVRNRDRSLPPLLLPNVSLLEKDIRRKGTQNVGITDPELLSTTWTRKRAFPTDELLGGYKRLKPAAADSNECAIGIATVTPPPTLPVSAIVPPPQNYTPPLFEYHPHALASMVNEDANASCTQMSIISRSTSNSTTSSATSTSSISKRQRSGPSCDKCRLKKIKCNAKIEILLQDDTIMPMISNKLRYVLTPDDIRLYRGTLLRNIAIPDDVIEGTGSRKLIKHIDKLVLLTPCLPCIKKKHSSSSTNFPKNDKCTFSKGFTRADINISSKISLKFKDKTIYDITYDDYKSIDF
# Assay: PBM E-score (8-mer binding enrichment) (E-score (-0.5 to 0.5)); higher = stronger / more preferred TF binding; most listed sequences are background and not binding sites
# Conditions: protein concentration: 200 nM; construct: GST-full length
# Outline: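 Universal all-10-mer Agilent arrays, double-stranded by primer extension on fresh or once-stripped slides, were probed with about 100-200 nM GST-tagged yeast transcription factors made by PURExpress. Fluorescent anti-GST detected bound protein, and masliner normalised the scans. E-scores from the Universal PBM Analysis Suite were given to each ungapped eight-base word pooled with its reverse complement.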
row,Sequence,PBM E-score
1,TACAGATA,0.232
2,ACACGGTA,-0.0295
3,ACAACGGT,-0.0817
4,TAGCTGCA,-0.21
5,ATATGGGC,-0.087
6,AAACGATG,0.13
7,GAAAAGGC,0.0202
8,ATATGCCA,-0.0276
9,AACCCGGT,-0.154
10,TACACCGA,0.106
11,TCAACAAA,0.17
12,GTGCCTGA,-0.163
13,AACACATA,0.185
14,GAAGAGCA,-0.0746
15,ACGCGCAC,-0.121
16,CTTGCTTA,-0.095
17,CCACGCAA,-0.0607
18,CAAGAGCA,-0.255
19,ATCCACCA,-0.0174
20,GAACAACC,0.167
21,CACGACTC,-0.0632
22,AATGCCGC,-0.0558

row,Sequence,PBM E-score
1,CGGCACCG,0.201
2,CAAACTTG,0.0533
3,ATTGTAAG,0.0414
4,CAATGCTC,-0.0941
5,AAGTCCCC,0.0106
6,CTATGAGC,-0.0667
7,CATAGTAG,-0.116
8,AAGTACGG,-0.0591
9,TAGCTAGA,-0.11
10,GAGGGTGA,-0.191
11,AACCCGGG,-0.0177
12,GACGTTGC,-0.0761
13,ATATCATA,0.236
14,ATATGCGC,-0.169
15,ATGAGGCA,-0.194
16,CATCCAAC,0.0969
17,CTTATAGC,0.0162
18,AGGTACCC,-0.281
19,GCAGTCGC,-0.12
20,GGCCGTGA,-0.0209
21,ATAGGGGA,-0.179
22,AGTATGAA,0.197

row,Sequence,PBM E-score
1,AGTTTGAG,0.164
2,ACTAAGCT,0.0925
3,CACCACCG,-0.128
4,AGACTGCC,-0.0781
5,AGCCAGTC,-0.039
6,CCGTGGGC,-0.0462
7,AGAAGCGG,-0.0604
8,ACTCGGAC,0.411
9,CTACCAGC,-0.212
10,ATGACGAA,0.0842
11,ACTACAGG,-0.0295
12,CAGAGGGC,-0.133
13,CCCAGCGA,-0.228
14,ACACAGAT,0.00624
15,GGCCAACA,0.0303
16,CAAGACAG,-0.0887
17,AGACGGTG,-0.0879
18,CAGCAATG,-0.204
19,CTACCTTC,0.0336
20,ACGAGTTC,-0.011
21,CAAAGACG,0.0234
22,CATGATTA,0.229

row,Sequence,PBM E-score
1,AACGCCAC,-0.141
2,AAAGCAGC,0.0842
3,CTCATCGA,-0.105
4,ACTACCCG,-0.0334
5,ATGCCGAC,0.0527
6,GCCGCCGC,-0.192
7,CTACTAAC,0.0315
8,ACCTCTCA,-0.0959
9,ATGGGGAC,-0.00918
10,GAGACCTA,-0.0389
11,GCCGTTCA,-0.0518
12,CCATAGAG,-0.271
13,ACCACAAT,-0.0883
14,GAACGCGC,0.117
15,AGAGTGGA,-0.0219
16,GCGACGAC,-0.174
17,CACCGATC,0.00747
18,CAATGCCC,-0.0972
19,ACTCACAA,0.0548
20,AGGTGAAA,0.0598
